Measured values: PubChem BioAssay AID1508624 (National Center for Advancing Translational Sciences (NCATS), 2021)
Screen size: about 48,000 compounds; about 120 (0.25%) were called active. Another 4% or so got no clear call; they are omitted. The call rests on the fitted dose curve; in most records, active means well fitted activation curve with a large enough effect; inconclusive means small, poorly fitted or top-dose-only effect, or another doubt; inactive means no such curve, though single readings can be large or run the other way. Some of the results follow.

experiment: Primary qHTS for Identification of Small Molecule Activators of Huntingtin-Antisense Promoter Activity; conditions: HEK293 HTT-AS promoter firefly luciferase reporter, 24 h; series mostly up to 57.5 µM; activity change, positive = activation: at the top concentration; further: nearly all actives have a fitted effect of over 55% in size
In short: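 Firefly luciferase readout (Dual-Glo, 10 min RT) after 24 h, 37 °C compound exposure (final up to 57.5 uM) of HEK293 reporter cells cultured 24 h beforehand; PTC124 at 50 uM final as control inhibitor; activity scaled vehicle 0%, zero RLU -100%.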

Activity change, positive = activation, inactive:
CC1=C(C(=O)Nc2ccc(Cl)cc2)C(c2cccs2)n2nc(SCc3cccc(C)c3)nc2N1 (configuration not stated) 5.77%
Cc1ccc(NC(=O)c2cnc(SCC(=O)N3CCCc4ccccc43)n(C)c2=O)cc1 -4.42%
CC(C)(C)OC(=O)N1CCC(c2c(C(=O)N3CCN(c4ccccc4F)CC3)cnn2-c2ccccc2Cl)CC1 -23%
CCOc1ccc(NC(=O)CCNS(=O)(=O)c2ccc3c(c2)CCCC(=O)N3)cc1 -10.6%
CCOc1ccc(NC(=O)c2c(NCc3cccnc3)sc3c2CCC(C)C3)cc1 (configuration not stated) -3.78%
CCN(CC)C(=O)Cn1c(=O)n(-c2ccc(C)c(C)c2)c(=O)c2c(C)c(C(=O)N(CC)CC)sc21 0.597%
CC(=O)c1sc(NC(=O)c2c(-c3ccccc3)c(-c3ccccc3)nn(C)c2=O)nc1C -14.9%
CCN1CCN(C(=O)c2cnn(-c3ccc(F)cc3F)c2C2CCN(C(=O)OC(C)(C)C)CC2)CC1 -9.29%
CC1CCc2onc(C(=O)N3CCN(c4ccc(F)cc4)CC3)c2C1 (configuration not stated) -30%
CCCCCN1C(C(=O)c2ccccc2)=C(NC(=O)c2ccc(C)cc2)c2ccccc2S1(=O)=O -18.1%
COc1ccc(OC)c(NC(=O)c2cnc(Nc3ccc(C)c(Cl)c3)c3ccccc23)c1 -18.7%
CC(=O)c1ccc(O)c(C(N)=O)c1 -2.59%
CC(C)Cn1c(C2CC(=O)N(c3ccccc3Cl)C2)nc2ccccc21 (configuration not stated) -2.2%
Cc1oc(-c2ccc(C(=O)NCCN(C)C)cc2)nc1CS(=O)(=O)c1ccccc1 5.31%
O=C(Cn1nc(-c2ccccc2)nc(Cc2ccccc2)c1=O)Nc1ccc(Cl)cc1 0.137%
Cc1cccc(NC(=O)Cn2nnc(C(=O)NCc3ccco3)c2N)c1 -13.7%
Cc1cnc(Nc2ccc(F)cc2Cl)nc1-c1c[nH]c(C(=O)N[C@H](CO)c2cccc(Cl)c2)c1 -57.2%
COc1ccc(Br)cc1C(=O)Nc1ccc(-c2nc3ncccc3o2)cc1C -6.42%
Cc1cccc(-n2c(N)cc(=O)nc2SCC(=O)Nc2ccc(F)cc2)c1C -6.43%
Cc1ccc(C(=O)NCC(=O)OCc2cc(=O)n3ccsc3n2)cc1 -0.0206%
CCc1ccc(NC(=O)CSc2ccc3nc(-c4ccc(OC)cc4)cn3n2)cc1 14.5%
CCOC(=O)CCC(=O)Nc1nnc2n1CCS2 -9.4%
O=c1c(NCc2ccccc2Cl)nccn1-c1ccccc1 9.14%
CC(=O)N1CCc2cc(S(=O)(=O)NC(CC(C)C)C(=O)NCc3ccccc3Cl)ccc21 (configuration not stated) -23.3%
COc1ccc(CNC(=O)CCc2c(C)c3cc4c(C)c(C)oc4cc3oc2=O)cc1 -12.7%
CC(=O)Nc1ccc(-c2nnc3n(Cc4ccc(C)cc4)c(=O)c4ccccc4n23)cc1 4.87%
CCCCNc1ccc(C(=O)OCCN(C)C)cc1 6.92%
CCCCCOc1ccc(Cn2c(=O)oc3ccc(C)cc32)cc1OC -32.5%
CCC(=O)N1CCc2cc(Br)cc(S(=O)(=O)N3CCC(C(=O)Nc4ccccc4F)CC3)c21 -18.2%
Cc1cc(C)cc(C(=O)n2nc(C)c(S(=O)(=O)N3CCCCCC3)c2C)c1 -21.7%
O=C(Nc1ccc(Cl)cc1Cl)c1cc(S(=O)(=O)N2CCCCCC2)ccc1F -16.2%
CCCCS(=O)(=O)c1oc(-c2cccs2)nc1S(=O)(=O)c1ccc(F)cc1 -93.6%
O=C1CC(c2cc(F)cc(F)c2)c2cc3c(cc2N1)OCO3 (configuration not stated) -25.8%
Cc1c(C(=O)N2CCN(c3ccc(F)cc3)CC2)sc2nc3n(c(=O)c12)CCC3 -4.78%
O=C(Cn1ccn(-c2ccc(F)cc2)c(=O)c1=O)Nc1ccccc1C(F)(F)F -10.5%
CCCCc1nn2c(=O)cc(COC(=O)c3ccccc3NC(=O)c3cccs3)nc2s1 0%
COC(=O)c1ccccc1NC(=O)c1cnn(-c2ccc(F)cc2)c1-n1cccc1 -16.7%
Cc1ccc(CN(C(=O)COc2ccccc2[N+](=O)[O-])c2ccccn2)cc1 -13.9%
CCCCCOC(=O)Nc1nc(=O)n([C@@H]2O[C@H](C)[C@@H](O)[C@H]2O)cc1F 1.8%
CCCN(CCC)CCNC(=O)CN1C(=O)COc2ccc(S(=O)(=O)N3CCOCC3)cc21 -9.18%
CCC(CC)C(=O)Nc1nnc(S(=O)(=O)N2CCc3ccccc32)s1 -13.4%
Cc1cccc(OCC(=O)NCCc2nc3ccccc3[nH]2)c1C -7.45%
O=C(NCc1ccccc1Cl)C1CCN(C(=O)N2CCOc3ccccc32)CC1 -11.9%
CCOc1ccc(-n2nc(CO)c(C(=O)NCc3ccccn3)n2)cc1 8.1%
COC(=O)CSc1nc2sc3c(c2c(=O)n1-c1ccc(C)cc1)CC(C(C)C)OC3 (configuration not stated) -10.4%
CCN(CC)S(=O)(=O)c1ccc2c(c1)N(CC(=O)Nc1ccc(OC)cc1)C(=O)CS2 -3.13%
Cc1ccccc1CNC(=O)c1oc2c(c1C)-c1nn(Cc3ccc(Cl)cc3)cc1CC2 -31.5%
CCOc1ccc(NC(=O)C2CCCN(c3cnccn3)C2)cc1 (configuration not stated) 12.9%
c1cc(OCCN2CCCCC2)cc(-c2n[nH]c3ccc(-c4ncn[nH]4)cc23)c1 -21%
CCOc1ccc(Cl)cc1CNCCCSc1nnnn1C 5.5%
COc1ccc(/C=C/C(=O)N2CCC(c3nc4ccccc4o3)CC2)cc1OC -30.6%
COc1ccc(OCC(=O)N2CCN(C(=O)c3cc(OC)c(OC)c(OC)c3)CC2)cc1 -1.6%
CCOc1ccc(C2N3CC4(C(C)C)CN2CC(C(C)C)(C3)C4=O)cc1OC (configuration not stated) -19.1%
CCOc1ccccc1NC(=O)N(C)CCc1c(C)nn(CC)c1C -3.52%
Cc1ccc(NC(=O)c2ccc(=O)n(CC(=O)Nc3c(C)cc(C)cc3C)n2)cc1 -24.4%
Cc1ccc(COc2ccc3oc(-c4ccccc4)c(C(=O)O)c3c2)cc1 -3.69%
COc1ccc(-n2nc(C(=O)Nc3ccc(Br)cc3C)c3c4ccccc4n(C)c3c2=O)cc1 -3.93%
CCOc1ccc(C2C=C(c3cccc(OC)c3)Nc3nnnn32)cc1 (configuration not stated) -25.3%
COc1ccc(C(=O)N2CC(=O)Nc3ccc(C)cc3C2c2ccccc2)cc1OC (configuration not stated) -4.57%
CC(C)(C)c1ccc(C(=O)NNc2ncnc3c2cnn3-c2ccccc2)cc1 -7.52%
CCN(C(=O)Cn1c(SCC(=O)Nc2ccc(OC)cc2)nc2ccccc21)c1cccc(C)c1 -18.8%
O=C(COc1ccccc1)NCC(c1cccs1)S(=O)(=O)c1ccc(Cl)cc1 (configuration not stated) -26.2%
COc1cccc(C(=O)Nc2ccc(-n3nncc3-c3ccc(Br)cc3)cc2)c1OC -2.3%
Cc1cc(C)n2c(Nc3ccccc3C)c(-c3cccs3)nc2n1 -12%
O=C1CCc2ccc(OCCCCN3CCN(c4cccc(Cl)c4Cl)CC3)cc2N1
COc1ccc(C2=NN(S(C)(=O)=O)C(c3cn(-c4ccccc4)nc3-c3cccs3)C2)cc1 (configuration not stated) -8.19%
C#CCN1C(=O)C(O)(CC(=O)c2ccc(OC)c(OC)c2)c2cc(Br)ccc21 (configuration not stated) -15.6%
COc1ccc(C(=O)NCC(c2ccc3c(c2)OCO3)N2CCOCC2)cc1 (configuration not stated) -13.2%
Cc1ccc(CN2C(=O)c3ccccc3Sc3ccc(C(=O)NCc4ccco4)cc32)cc1 -50.3%
Cc1oc2ncnc(N3CCOCC3)c2c1C(=O)N1CCN(c2cccc(C(F)(F)F)c2)CC1 -13.1%
COc1cccc(-c2ccnc3c(-c4ccc(F)cc4)c(C)nn23)c1 9.83%
CCCn1c(=N)c(C(=O)NCc2cccnc2)cc2c(=O)n3cccc(C)c3nc21 -4.38%
Cc1ccc(Oc2nc3c(c(=O)n(Cc4ccccc4)c(=O)n3C)n2C)cc1C 14.5% [at 11.5 µM, percent change from vehicle, -100% = no light]
CCN(C(=O)C1CCC(CNS(=O)(=O)c2cccc3nsnc23)CC1)c1ccccc1 (configuration not stated) -27.1%
CCN(C(=O)C1CCC(CNS(=O)(=O)c2cccc3nsnc23)CC1)c1cccc(C)c1 (configuration not stated) -27.8%
CN(C)CCOC(c1ccc(Cl)cc1)c1ccccn1 (configuration not stated) -9.7%
O=C(Cc1ccc(NC(=O)N2CCSc3ncccc32)cc1)NCc1ccccc1 -16.4%
Cc1cc(C)cc(NC(=O)Cn2c(=O)n(C(C)C)c(=O)c3oc4ccccc4c32)c1 -17.3%
Cc1cccc2c1CC[C@H](CN1CCC(c3c(Cl)cccc3Cl)CC1)C[C@@H]2O 5.16%
CCCc1ccc(OCC(=O)Nc2scc(-c3cccs3)c2C(=O)OC)cc1 -19.8%
COc1ccc2c(c1)CC(C(=O)NCCN1CCN(c3cccc(Cl)c3)CC1)CO2 (configuration not stated) -21.6%
O=C(c1ccc2c(c1)N(Cc1ccc(F)cc1)CCS2)N1CCN(c2ccccc2)CC1 -31.8%
NC(=O)NC1NC(=O)NC1=O (configuration not stated) 1.64%
Cc1ccc(CNC(=O)c2sc3nc4n(c(=O)c3c2C)CCCC4)cc1 15%
Cc1nc(Oc2ccccc2C)c2oc3ccccc3c2n1 -34.6%
Cc1c(C2=CCN(S(=O)(=O)c3ccc(Br)cc3)CC2)c2ccccc2n1CC(=O)N1CCCC1 -9.01%
Cc1ccc(CNC(=O)CSc2c3c(nc4ccc(Cl)cc24)CCCC3)cc1 -5.66%
Cc1cccc(Nc2nc(C)nc(N)c2S(=O)(=O)c2ccccc2)c1 -15.1%
CCOc1ccc(NC(=O)CN(Cc2ccccc2)S(=O)(=O)c2ccc(Cl)cc2)cc1 -11.3%
COc1ccc2nc3oc(C(=O)Nc4cccc(C(F)(F)F)c4)cc3cc2c1 -12.8%
Cc1cc(C)cc(NS(=O)(=O)c2ccc3c(c2)OCC(C(=O)N2CCCC2)O3)c1 (configuration not stated) -23.6%
Cc1ccc2nc(-c3ccc(C)c(NC(=O)Cc4ccccc4)c3)oc2c1 -72.1%
Cc1ccccc1CN1CCc2nc(N3CCN(c4ccccn4)CC3)ncc2C1 -33.6%
CCc1c(C)sc2c1CCN(C(=O)Nc1ccccc1C(=O)OC)C2c1ccc(F)cc1 (configuration not stated) -0.945%
CCNC(=O)c1c(NC(=O)COc2ccc(F)cc2)sc2c1CCCC2 -5.37%
O=C(Nc1ccc(Br)cc1)N1CCC(CN2CCCC2)CC1 -15.8%
COc1ccc(NC(=O)CSc2c3c(nc4ccc(Cl)cc24)CCCC3)cc1Cl -48%
